From the supplement of paper PMC3334620
In all, about 33,000 sequences were measured (“E-score (-0.5 to 0.5)”: median about -0.053, highest 2% from about 0.37 on). The list shows a part of the results.

Biological target: Hap1 (UniProt P0CE41)
Assay: PBM E-score (8-mer binding enrichment) (E-score (-0.5 to 0.5)); higher = stronger / more preferred TF binding; most listed sequences are background and not binding sites
Conditions: protein concentration: 200 nM; construct: GST-DNA-binding domain
Procedure, shortened: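 For each ungapped eight-base word taken together with its reverse complement, the Universal PBM Analysis Suite assigned an E-score. Binding data came from GST-tagged yeast transcription factors, applied at about 100-200 nM, on universal all-10-mer Agilent arrays made double-stranded by primer extension. Fluorescent anti-GST marked bound protein, and scans were normalised with masliner.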

Sequence of UniProt P0CE41 (P0CE41 whole entry): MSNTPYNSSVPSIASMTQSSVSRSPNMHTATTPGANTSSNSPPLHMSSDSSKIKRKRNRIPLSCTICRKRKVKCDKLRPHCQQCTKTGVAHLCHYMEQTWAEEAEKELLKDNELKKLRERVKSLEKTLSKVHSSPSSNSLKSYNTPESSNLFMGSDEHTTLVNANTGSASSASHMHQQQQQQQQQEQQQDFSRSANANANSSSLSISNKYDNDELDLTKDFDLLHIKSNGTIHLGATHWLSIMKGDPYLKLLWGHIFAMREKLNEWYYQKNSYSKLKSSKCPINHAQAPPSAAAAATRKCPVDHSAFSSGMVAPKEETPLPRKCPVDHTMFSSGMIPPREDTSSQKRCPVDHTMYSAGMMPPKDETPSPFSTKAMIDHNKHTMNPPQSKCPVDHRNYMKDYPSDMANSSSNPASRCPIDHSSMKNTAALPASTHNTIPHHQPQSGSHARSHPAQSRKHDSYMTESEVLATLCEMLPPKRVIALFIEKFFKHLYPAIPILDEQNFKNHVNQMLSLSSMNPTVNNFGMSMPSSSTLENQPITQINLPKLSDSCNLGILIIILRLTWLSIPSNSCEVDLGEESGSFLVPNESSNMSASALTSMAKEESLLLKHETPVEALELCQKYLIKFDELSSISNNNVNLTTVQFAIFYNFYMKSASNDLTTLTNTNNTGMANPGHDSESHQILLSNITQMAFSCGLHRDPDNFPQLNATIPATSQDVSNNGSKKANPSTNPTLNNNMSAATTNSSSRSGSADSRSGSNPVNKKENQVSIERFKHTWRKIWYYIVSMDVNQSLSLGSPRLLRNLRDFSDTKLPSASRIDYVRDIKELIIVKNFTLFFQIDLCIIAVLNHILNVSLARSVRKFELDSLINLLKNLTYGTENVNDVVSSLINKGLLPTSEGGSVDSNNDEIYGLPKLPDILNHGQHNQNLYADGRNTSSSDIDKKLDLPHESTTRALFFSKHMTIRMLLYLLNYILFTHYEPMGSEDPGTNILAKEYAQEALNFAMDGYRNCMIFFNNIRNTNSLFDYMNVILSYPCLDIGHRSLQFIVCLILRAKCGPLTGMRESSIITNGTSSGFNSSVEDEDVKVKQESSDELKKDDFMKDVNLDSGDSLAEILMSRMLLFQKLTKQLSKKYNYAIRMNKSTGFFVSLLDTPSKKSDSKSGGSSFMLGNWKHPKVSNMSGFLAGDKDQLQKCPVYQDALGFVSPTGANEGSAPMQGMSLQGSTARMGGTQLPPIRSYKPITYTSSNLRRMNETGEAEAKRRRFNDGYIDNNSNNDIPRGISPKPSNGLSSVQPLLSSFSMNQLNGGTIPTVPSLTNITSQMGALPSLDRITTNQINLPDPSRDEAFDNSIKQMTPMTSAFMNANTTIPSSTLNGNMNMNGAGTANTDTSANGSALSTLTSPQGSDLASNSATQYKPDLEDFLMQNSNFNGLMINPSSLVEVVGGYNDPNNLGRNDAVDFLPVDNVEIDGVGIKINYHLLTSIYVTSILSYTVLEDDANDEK

Sequence	PBM E-score
ATCAATTA	0.0775
ACCTTGGG	-0.0978
AGGTGGCG	-0.0898
TGTGTGAA	-0.247
TCATGAAA	-0.00377
GAGCCGGC	0.339
AGTTTATG	-0.185
CACCTCTC	-0.122
CTAAGATA	-0.138
CAGTTCGG	0.296
ATGTGTCG	-0.0893
CGTGAGCC	-0.185
GTTTTCGA	-0.166
CACAAATC	-0.00686
CATTGGTC	-0.0269
AACGAAAG	-0.199
GGGGTGGA	-0.0146
AAAGTTCC	0.214
CAACAGTA	-0.151
AATATTCA	-0.174
AAGTCCCA	-0.0327
AGTAGATC	0.0489
CTGAGTGA	0.041
AAAAAGCG	0.198
ACCGACAA	0.304

Sequence	PBM E-score
GGGGCTCA	-0.167
CACTTACA	-0.168
CCCTATCC	-0.0196
AAAGAAAT	-0.0425
GCTGTCGA	-0.0635
ATTCCCCG	0.286
CATTTGAG	-0.00565
CACTGCTG	-0.261
CGGGACCA	0.15
AATTTCAT	-0.311
ACAGCGCC	0.101
AAGACCTA	-0.00564
ACAGGTCA	-0.221
CTCGGGTA	0.264
CGCCCGTC	0.296
AATACGGG	0.12
GTGTACTA	-0.143
GTCGGAAA	0.361
GCGCCGCC	0.136
ATTCTACG	0.0383
GTAAGGTA	-0.212
AGAGGAAT	-0.205
GATGCGTA	-0.193
CAGTTCTC	-0.0677
CAAGCTTG	-0.176

Sequence	PBM E-score
ATGCCCTG	-0.187
AAACCCCC	0.0478
AGACTTTC	-0.0993
CTATCTCA	-0.0749
ACATAATC	0.0839
AGAGTATA	-0.147
GAGTTCCC	0.103
ATGAGCCG	0.0868
ACCTTCTG	0.0098
CATATTCG	0.0356
GCGTATAA	0.143
GTAGACAA	-0.0438
ATCTATAG	-0.165
CTGATCCA	-0.0867
ACATCAAG	-0.0681
CGCGCTCC	0.206
AACTCCGG	0.481
GAGTGCTA	-0.0599
AGTTTGTC	-0.117
ATCGCTAC	0.0409
AGTTACCG	0.266
ACGGTATG	-0.0656
TGAACCAA	-0.232
AAATCAAA	-0.123
AAAGAGCG	0.0872

Sequence	PBM E-score
AACAAGCC	-0.154
GCCCCACA	-0.237
GCGGGTCC	0.187
GCTATTCC	0.125
CGTCCTTA	-0.0249
AATATAGG	0.0252
TCGAACAA	-0.132
CTGGCTCA	-0.224
CGTGGGAC	-0.0224
ACATCTGG	-0.136
GAAGGAGC	-0.223
CTCCACGA	1e-05
GAATTGAC	0.0531
ATGCCTTG	-0.2
CCAGGGCG	0.199
CGACGGAG	0.287
ATTGATGG	-0.0931
CACCGGTG	0.24
CCTACGAA	-0.163
GAAGGTCA	-0.223
CCGTTCAC	-0.0828
ACCTCCTC	-0.197
CGCATCGC	-0.0669
GAATCTCC	0.294
CCCTTCTC	-0.175

Sequence	PBM E-score
CTTGTGTA	-0.254
CCGAAAGA	0.319
ATCCTCCG	0.243
CTAGTAAC	-0.206
GACAATAA	0.0844
CGACACTC	0.081
ATCGTCGC	-0.126
CAGCGCGG	0.164
CGATTCTC	0.0688
ACGTACTA	-0.104
GAGGGGAA	0.148
GACCCGCA	0.128
CCTACTCC	-0.105
GCGCTCCA	-0.00761
CGGACGAA	0.431
ACGGGCCC	0.214
GGACTTGA	0.0649
ATTCTTGG	0.0308
ATTAAACC	0.181
AGACCCCT	-0.281
ATCAATGA	-0.0255
GGCCCACC	0.0393
CACTAAGG	0.0292
ACACATAT	-0.0802
CTGAGGTA	-0.0816

Sequence	PBM E-score
CAATGACC	-0.0236
GCGTGATA	-0.0728
AAAGTGCC	-0.0278
GCTATTGA	-0.00882
CATTGTTC	0.0428
AATAGCCG	0.287
ACTTCATA	-0.129
ACAGTGCA	-0.0406
CACGGATA	0.298
GTTGCTTA	-0.129
AACTTTGC	0.0892
CGAGTTTA	0.0759
AACATCCG	0.361
GCGTGTTA	-0.325
CCACTTTA	-0.00297
CCAAATTA	-0.0906
AAACCGAA	0.26
CCCTAACG	0.0906
CCTACACA	-0.135
ACCCATCG	0.0009
TCAGCTGA	-0.295
ATGAGCAG	-0.214
ACTTTGCG	0.00819
ACCATCCG	0.186
ATGCCGGG	0.217

Sequence	PBM E-score
ACGGTAGA	0.0522
AGACAACG	0.0357
CGGATGAG	0.283
AATTATAC	0.196
AAAAGAGA	-0.275
AATCCACT	-0.124
GCCTCGCA	-0.0625
CATGTAAG	-0.087
CTAAGGCC	0.0357
ACGTGTCT	-0.28
CCGAGGAA	0.297
AGGATTGG	-0.0993
CCCAACCG	0.0888
CACAAGTA	-0.147
AACCGCTC	0.0164
AGAGATCG	-0.0743
AGAAGCAA	-0.0121
ACCATCGC	0.0361
ACTTTTGA	-0.129
ACAATACG	-0.0169
CGACTTCA	0.0753
ACACACTG	-0.134
ACTGCAAG	-0.331
CTGCCAGC	-0.201
CCAGAGTA	-0.071

Sequence	PBM E-score
CACTTATA	0.0264
TCTTAGAA	0.0487
GGAGAGTA	0.204
GTGTAAAA	-0.0823
CTCCTATC	0.0794
ATGCGGGA	0.184
ATTTTAAA	-0.0433
AAGTAGGT	0.00362
GGTATTGA	0.145
GCCTTTAC	-0.0548
AATACACT	-0.282
GGTCTATA	-0.109
AGTGCTTA	-0.092
CTTGCCAC	-0.23
GTTGGGCA	-0.082
AGTGGGCC	-0.177
ACAAATAG	-0.0365
CACCCCAA	-0.0996
CCCGTTTA	0.124
AAATCGTT	-0.225
CCCTGCCA	-0.102
CCAGGCAG	-0.0986
CAGTCAGA	-0.142
CCGGGGGC	0.284
ACAGAGCT	-0.283

Sequence	PBM E-score
CCGTATAA	0.218
ACGTTTTA	-0.17
GACTATAC	0.0197
TACCTTAA	-0.0145
ATCGCCTA	0.0537
GGGTACCA	-0.265
ACAGAGTA	-0.254
AATAAGGC	-0.111
GAGAAATA	0.138
ATCCAGAA	-0.131
ATTAAGAA	0.127
CGGTCGAA	0.359
GCATTAGC	0.137
GGACCTCC	0.0912
ATTCTCCC	0.0268
CAGTCTGA	-0.28
ATGTTCTG	0.0378
CCATTCCG	0.169
TCAAACAA	-0.0623
CTTTGAAC	-0.108
AAGTCAAG	-0.138
CGGATTGC	0.32
CACTTCAC	-0.146
AGCGCAAC	-0.00913
TGGCACCA	-0.231

Sequence	PBM E-score
CTTATCGC	0.339
GACCGCAC	0.073
ACGGTTCC	0.089
GCAGTCCA	-0.216
ATTGTGGG	-0.0625
AGCGCGAT	0.126
GCTCCGAC	0.212
ATCTGGGC	-0.0351
ATTCTGCA	-0.0835
AGACGTTC	-0.0931
ATGCGCCA	-0.093
ACCTAAAG	-0.145
GTCAAGAC	-0.186
CCAAACCG	0.192
ACGGAACT	0.326
AGAGATCA	-0.339
CTGTAATC	-0.0658
ATCGAAAT	-0.0185
CAAGTTCG	0.00671
ATCGACTA	-0.127
TATCAGCA	0.0209
CAAGATGA	-0.17
TAACGGGA	0.252
ACCCAAGG	-0.0848
CAAGATAA	-0.0149

Sequence	PBM E-score
ATATGTAA	-0.205
ATAATGGG	0.109
CGGACGAC	0.371
ACTCCGTA	0.244
AGACCAGC	-0.195
AGGGACCC	-0.14
GAGCTACA	-0.0421
CATATATA	0.0604
CCTGAGAC	-0.114
ACGATCGG	0.258
CGCCGTTC	0.163
TCCTTTCA	-0.0699
AGTAAAGC	-0.00459
AACCGCCG	0.326
AACAGGAC	-0.144
AGACAATG	0.0262
GTGCAATA	-0.179
AAATGCGC	0.168
GACCCATA	0.118
GATAATGA	-0.0504
AACCGTTA	0.0873
AGGTGTCC	-0.00488
AAGAAAGT	0.0731
GGTCATCA	-0.136
ACTCACGC	-0.182

Sequence	PBM E-score
CATCGTAA	0.0182
ACTCTATA	0.00566
CAACCAAA	-0.0496
AGGGAGAA	-0.0602
AACTCTAC	-0.212
ACAAGTAG	-0.136
CCTCTTAA	-0.0575
CATTGCTA	-0.0797
CCACTACA	-0.207
AGTAAGCC	-0.00454
ATTTCGCA	0.201
AAGGTCTG	-0.122
CCAATTCG	-0.0334
AGATAAGC	-0.0608
CGTAAGTA	0.211
CCCAAAGG	-0.222
CTCACATC	-0.163
AAGACGCC	-0.0181
CTAATATA	-0.0706
AGGCCAGG	0.0462
ATCAAAAG	-0.046
GGCCTACC	0.0874
TAACTGGA	-0.142
GCCGTGCA	-0.0218
AACTTTTA	-0.016

Sequence	PBM E-score
CCTCGTAC	0.103
ATGAGTAC	-0.0327
CCTAGGTC	-0.142
CTGTCAAG	-0.157
GCTTTACC	0.091
CCTCAAAA	-0.0303
CTGACAAG	-0.122
GGAACCCC	0.144
ACATCACA	-0.117
GCGTCAGA	-0.112
GCCGATTA	0.299
AACTACTA	0.019
CCAGGCCC	-0.0511
ATTGCCCC	-0.0427
CCTACTAC	-0.117
TCAATCGA	-0.0573
ATCCCAAA	-0.0223
CAGAGTGG	-0.211
AGAAACAG	-0.108
AGACGCCT	-0.202
CATTAGGG	-0.211
AAAGTAGT	-0.148
GATTACCA	-0.0392
ACGTAGTG	-0.114
ACTAGACT	-0.206

Sequence	PBM E-score
AGTGTCAA	-0.295
CAGATATC	0.199
ACAAAGTC	-0.116
ACGGTGCC	0.0742
CCGCTGAC	0.112
AGTGAAAA	0.0463
ACCTAGGT	-0.105
CCCGCACG	0.135
GAATCACC	-0.0956
GTATCGCA	0.0745
CGGGACCG	0.341
AATAAGCC	0.149
ACTGGTCT	0.0361
CGCAGTTA	0.256
CCGCCTGA	0.102
ATGAGCAT	-0.0227
CAGGTTTA	-0.0176
ATGAGAAA	-0.147
TAAGACGA	-0.227
